This is one part of the list.
Tests used:
[1] = system: HSkMC (human skeletal muscle cells); assay: cytotoxicity call (relative viability < 0.9); details: 10 µM
[2] = system: HepG2; assay: cytotoxicity call (relative viability < 0.9); details: 10 µM
[3] = system: S. aureus RN4220; assay: growth inhibition call (relative growth <= 0.2); details: 50 µM

| SMILES | cytotoxicity call [1] | cytotoxicity call [2] | growth inhibition call [3] |
| --- | --- | --- | --- |
| CCCCCCCCCCCCCCCC[N+](C)(C)CCN(Cc1ccc(OC)cc1)c1ncccn1 | active | active | inactive |
| C[C@@H]1CCCCO[C@@H](CN(C)Cc2ccc3c(c2)OCO3)[C@@H](C)CN([C@H](C)CO)C(=O)c2cc(NC(=O)NC3CCCCC3)ccc2O1 | inactive | inactive | inactive |
| CC(C)NC(=O)Nc1ccc2c(c1)CC(=O)N([C@@H](C)CO)C[C@H](C)[C@H](CN(C)S(=O)(=O)c1ccccc1)O2 | inactive | inactive | inactive |
| CCCNC(=O)N[C@H]1C=C[C@H](CC(=O)N2CCN(C)CC2)O[C@H]1CO | inactive | inactive | inactive |
| O=C(Nc1ccc(C(F)(F)F)cc1)Nc1ccc2c(c1)[C@@H]1C[C@@H](CC(=O)N3CCc4ccccc4C3)O[C@H](CO)[C@@H]1O2 | inactive | active | inactive |
| Cc1ccc(-c2ccc3c(c2)O[C@H](CN(C)C(=O)CN(C)C)[C@H](C)CN([C@@H](C)CO)S3(=O)=O)cc1 | inactive | inactive | inactive |
| O=C1COC[C@@H](c2ccccc2)N1 | inactive | inactive | inactive |
| C[C@@H]1CCCCO[C@H](CN(C)CC2CCCCC2)[C@@H](C)CN([C@H](C)CO)C(=O)c2cc(NC(=O)Cc3ccccc3)ccc2O1 | inactive | inactive | inactive |
| COc1ccc(C2Sc3ccccc3N(CCN(C)C)C(=O)C2OC(C)=O)cc1.Cl (stereo not given) | inactive | inactive | inactive |
| COCC#Cc1ccc([C@H]2[C@@H](CO)N3C(=O)CN(C(=O)CN4CCOCC4)C[C@H]23)cc1 | inactive | inactive | inactive |
